Test results as given in PubChem BioAssay (NCI).
“And” between values parts separate entries of the source, which are not always exact repeats. Identical values can stand only once.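 Protocol summary: plate cells (96-well), add compound at 5 concentrations, incubate 48 h, interpolate endpoints linearly. At the GI50, growth is halved. TGI denotes the concentration required for complete inhibition of growth.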

tested on: NCI-H322M lung; assay: growth of human tumour cells (NCI), 48 h

`O=C(O)C1CCCN1` (centres undefined) and `O=C(O)CSC1=NCCN1` cannot be ordered by TGI: over 100 µM for the first, over 100 µM for the second.

`Cc1cc2c3c(c1)S(=O)(=O)c1cc(Cl)ccc1N3CCC2` and `Cc1cc(C)c2c(-c3ccccc3)cc(=O)[nH]c2c1` cannot be ordered by TGI: over 100 µM for the first, over 100 µM for the second.

`CCOC(=O)N1CCC2(CC1)C[C@](Sc1ccccc1)(C(C)=O)[C@H](C)O2` and `CCOC(=O)Cn1nnc2ccc(Nc3nc4ccccc4nc3C(=O)OCC)cc21` cannot be ordered by TGI: over 100 µM for the first, over 100 µM for the second.

`NCCNCCNCc1c2ccccc2c(CNCCNCCN)c2ccccc12` and `Cc1c2ccccc2c(/C=N/NC(=O)CSCC(=O)N/N=C/c2c3ccccc3c(C)c3ccccc23)c2ccccc12` are within 1.5-fold of each other in TGI: 85.7 µM for the first, 97.2 µM for the second.

Going from `COc1cc(-c2csc(NC(=O)Nc3ccc(Cl)cc3)n2)cc(OC)c1OC` to `COc1ccc(-c2cc(=O)c3c(C)ccnc3[nH]2)cc1`, the TGI rises from 13 µM to 90.4 µM (7-fold).

First: O=C(c1ccccc1)[C@H]1Nc2ccc(Cl)cc2[C@H]2c3ccccc3O[C@H]21
Second: O=C(c1ccccc1)c1nc2ccc(Cl)cc2cc1C(Br)Br
The TGI of the first is 23-fold higher: 28 µM for the first, 1.24 µM for the second.

`Clc1ccc(NCNC2Nc3ccccc3N2)cc1Cl` and `Cc1cccc(-c2cc(=O)c3cccnc3[nH]2)c1` cannot be ordered by TGI: over 100 µM for the first, over 100 µM for the second.

`COc1ccc(-c2nn3ncccc3c2-c2ccnc(Nc3ccc(F)c(F)c3)n2)cc1` and `COc1ccc(C(O)C(c2ccc(OCc3ccccc3)cc2)c2ccc(OCc3ccccc3)cc2)cc1` (centres undefined) cannot be ordered by TGI: over 25 µM for the first, over 100 µM for the second.

`CC1(N2CCOCC2)CC2C(=[N+]1[O-])CCC/C2=N/O` (centres undefined) and `O=C(CN1CCCCC1)c1ccc2[nH]c(=O)oc2c1` cannot be ordered by TGI: over 100 µM for the first, over 100 µM for the second.

First: CCOc1cc(/C=C/C(=O)CC(=O)/C=C/c2ccc(OC(=O)CNc3nc4ccc(OC)cc4s3)c(OCC)c2)ccc1OC(=O)CNc1nc2ccc(OC)cc2s1
Second: O=C(Nc1ccc(Cl)cc1)c1cc(S(=O)(=O)Nc2nc3ncccc3[nH]2)c(SSc2cc(Cl)c(C(=O)Nc3ccc(Cl)cc3)cc2S(=O)(=O)Nc2nc3ncccc3[nH]2)cc1Cl
The TGI of the first is lower: 27.7 µM for the first, over 100 µM for the second.

`CC(C)Cn1cnc2c(N)nc3ccccc3c21` and `CCN(CC)C1=Nc2ccccc2-n2ccnc2C1` cannot be ordered by TGI: over 100 µM for the first, over 100 µM for the second.

`COc1ccccc1C1C(C#N)=C(N)SC(N)=C1C#N` and `CSC(=Nc1ccc([N+](=O)[O-])cc1C#N)NC(=O)c1ccccc1` cannot be ordered by TGI: over 100 µM for the first, over 100 µM for the second.

`CC(C)(C)c1ccc(O)c(C(O)c2ccccn2)c1` (centres undefined) and `O=C1C(NS(=O)(=O)c2ccccc2)=C(n2ccnc2)C(=O)c2ccccc21` cannot be ordered by TGI: over 100 µM for the first, over 100 µM for the second.

`O=C(Nc1ccc(Nc2ccc3c(c2)C(=O)c2ccccc2C3=O)c2c1C(=O)c1ccccc1C2=O)c1ccccc1` and `[Cu].c1ccc2c(c1)C1=NC2=NC2=NC(=NC3=NC(=NC4=NC(=N1)c1ccccc14)c1ccccc13)c1ccccc12` cannot be ordered by TGI: over 100 µM for the first, over 100 µM for the second.

`C[C@]12CCC(=O)C=C1CC[C@@H]1[C@@H]2CC[C@]2(C)C(=O)/C(=C/c3ccc([N+](=O)[O-])cc3)C[C@@H]12` and `COc1ccc2c(c1[N+](=O)[O-])CC[C@@H]1[C@@H]2CC[C@]2(C)C(=O)CC[C@@H]12` cannot be ordered by TGI: over 100 µM for the first, over 1000 µM for the second.

`NCC(=O)N[C@H]1c2ccsc2/C(=N/O)[C@H]1O` and `CCOP(=O)(OCC)C(C(=O)OC)C(=O)C(=O)Nc1cccc([N+](=O)[O-])c1` (centres undefined) cannot be ordered by TGI: over 100 µM for the first, over 100 µM for the second.

`Fc1ccc(F)c(C=NC23CC4CC(CC(C4)C2)C3)c1` and `CN1CCN(c2cc(F)c(NC3=C(Cl)C(=O)c4ncccc4C3=O)c(F)c2)CC1` cannot be ordered by TGI: over 10 µM for the first, 27.2 µM for the second.

`O=C1/C(=C/c2cc(O)c(O)c(O)c2)Oc2cc(O)cc(OC3OC(CO)C(O)C(O)C3O)c21` (centres undefined) and `Cc1cc(C)c2c(c1)CSCc1cc(C)cc(C)c1-2` cannot be ordered by TGI: over 100 µM for the first, over 100 µM for the second.

First: Clc1cccc(-c2cc(-c3ccc4c(c3)OCCO4)[nH]n2)c1
Second: O=[N+]([O-])c1ccc(Cl)c(C2CC(c3cccc4ccccc34)=Nc3ccccc3S2=O)c1 (centres undefined)
The TGI of the first is lower: 47.3 µM for the first, over 100 µM for the second.

Compared with `COc1cc(-c2csc(NC(=O)Nc3ccc(Cl)cc3)n2)cc(OC)c1OC`, `COc1ccc(-c2nn3ncccc3c2-c2ccnc(Nc3ccc(F)c(F)c3)n2)cc1` is higher in GI50: 2.76 µM for the first, over 16 µM for the second.

First: CCOc1cc(/C=C/C(=O)CC(=O)/C=C/c2ccc(OC(=O)CNc3nc4ccc(OC)cc4s3)c(OCC)c2)ccc1OC(=O)CNc1nc2ccc(OC)cc2s1
Second: [Cu].c1ccc2c(c1)C1=NC2=NC2=NC(=NC3=NC(=NC4=NC(=N1)c1ccccc14)c1ccccc13)c1ccccc12
The GI50 of the first is lower: 13.9 µM for the first, over 100 µM for the second.

Going from `CC(C)Cn1cnc2c(N)nc3ccccc3c21` to `COc1ccccc1C1C(C#N)=C(N)SC(N)=C1C#N`, the GI50 rises from 99 µM to over 100 µM.

Compared with `COc1ccc2c(c1[N+](=O)[O-])CC[C@@H]1[C@@H]2CC[C@]2(C)C(=O)CC[C@@H]12`, `CN1CCN(c2cc(F)c(NC3=C(Cl)C(=O)c4ncccc4C3=O)c(F)c2)CC1` is lower in GI50: over 884 µM for the first, 13.9 µM for the second.

With `Clc1cccc(-c2cc(-c3ccc4c(c3)OCCO4)[nH]n2)c1` the GI50 was 11.9 µM.

In the case of `CCOc1ccc2nc3cc(N)ccc3c(N)c2c1`, the GI50 was 2.62 µM and 2.33 µM.

With `CCOc1ccc2nc3cc(N)ccc3c(N)c2c1` the TGI was 12.4 µM and 8.84 µM.
